Reference: PubChem BioAssay AID1030 (National Center for Advancing Translational Sciences (NCATS), 2008)
In all, about 220,000 compounds went through this assay and about 16,000 (7.3%) were called active. The inconclusive results got no clear call from the source; some entries with a clear call stand among them for comparison. Calls come from the whole dose curve; as a rule, active = well fitted inhibition curve with a large enough effect (not every such curve was filed as active); inconclusive = small, poorly fitted or top-dose-only effect, or another doubt; inactive = no such curve, though single readings can be large or run the other way. Potencies of inconclusive entries are left out as doubtful fits.

biological target: Aldehyde dehydrogenase 1A1 (Homo sapiens) (UniProt P00352); assay: qHTS Assay for Inhibitors of Aldehyde Dehydrogenase 1 (ALDH1A1); conditions: Purified ALDH1A1, NADH fluorescence, propionaldehyde substrate; series mostly up to 75.3 µM; activity, negative = inhibition: at the top concentration;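 for activity, negative = inhibition: plate controls were no enzyme wells and a reference inhibitor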
Potency is the fitted concentration of half-maximal effect; tags give direction and shape of the fitted curve.

Chain of UniProt P00352 (P00352 whole entry, looked up): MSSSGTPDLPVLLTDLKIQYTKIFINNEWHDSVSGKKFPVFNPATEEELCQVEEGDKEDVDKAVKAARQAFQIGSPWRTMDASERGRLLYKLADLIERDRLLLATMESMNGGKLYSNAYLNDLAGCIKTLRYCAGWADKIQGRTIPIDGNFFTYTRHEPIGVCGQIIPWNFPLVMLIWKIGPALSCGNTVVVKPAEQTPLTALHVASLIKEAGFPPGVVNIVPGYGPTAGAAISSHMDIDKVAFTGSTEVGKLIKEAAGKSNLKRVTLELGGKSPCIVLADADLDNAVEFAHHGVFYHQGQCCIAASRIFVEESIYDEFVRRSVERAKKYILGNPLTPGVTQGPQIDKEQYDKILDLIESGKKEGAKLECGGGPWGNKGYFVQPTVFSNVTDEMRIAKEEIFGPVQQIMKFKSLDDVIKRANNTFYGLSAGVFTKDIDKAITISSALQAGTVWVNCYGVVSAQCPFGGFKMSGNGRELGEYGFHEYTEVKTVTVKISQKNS

SMILES | activity, negative = inhibition | Potency
CCOC(=O)c1cnc(-n2nc(C)cc2C)nc1N1CCOCC1 | inactive: 0.658% | –
Cc1nnsc1-c1nc2ccccc2[nH]1 | – | inconclusive [inhibitor, partial curve]
CCc1ccc(C(=O)Cn2ncc(Cl)c(Cl)c2=O)cc1 | – | active: 14.1 µM
O=C(O)CCc1ccc(-c2ccccc2)n1NC(=O)c1ccco1 | – | inconclusive [inhibitor, single point]
O=C(Nc1ccc(Cl)c(S(=O)(=O)N2CCOCC2)c1)c1ccc2c(c1)OCCO2 | – | inconclusive [inhibitor, partial curve]
Cc1nc(NCCN2CCOCC2)c2oc3ccccc3c2n1 | inactive: 8.59% | –
O=c1oc2cc(OCc3ccc(F)cc3F)ccc2cc1-c1ccccn1 | – | inconclusive [inhibitor, partial curve]
COc1cc(/C=N/NC(=O)c2cc(C)n(-c3ccc(F)cc3)c2C)cc(OC)c1O | – | inconclusive [inhibitor, single point]
O=C1/C(=C/c2ccc([N+](=O)[O-])cc2)C=C(c2ccccc2)N1c1ccccc1 | inactive: -1.93% | –
O=C1NC2(CCCc3ccccc32)C(=O)N1CCOc1ccc(Br)cc1 (stereo not drawn) | inactive: 3.64% | –
Cc1cc(C(C)(C)CC(C)(C)C)ccc1OCCOCC[N+](C)(C)Cc1ccccc1 | inactive: -14.6% [at 20.9 µM] | –
O=C(Nc1nnc(-c2ccco2)o1)c1cccc(N2C(=O)CCC2=O)c1 | – | active: 28.2 µM
CCn1cc(C(=O)N2CCN(c3ccc(C(C)=O)cc3)CC2)c2cc(OC)c(OC)cc2c1=O | – | inconclusive [inhibitor, single point]
CC(C)(C)NC(=O)NC(=O)COC(=O)C1CC(=O)N(Cc2ccccc2)C1 (stereo not drawn) | – | inconclusive [inhibitor, single point]
Cc1ccccc1CN1C(=O)C(O)(CC(=O)c2ccncc2)c2ccccc21 (stereo not drawn) | – | active: 0.112 µM
CCOc1ccccc1OCCCOc1ccc(C)cc1Br | inactive: 0.355% | –
Cc1ccc(C)c2nc(N3CCCC3)c(C#N)cc12 | – | inconclusive [inhibitor, single point]
CC(C)=NOC[C@@H](O)COCc1ccco1 | inactive: -4.85% [at 13.5 µM] | –
O=C1OCC(CO)(CO)N=C1NNc1cc(Cl)ccc1Cl | – | inconclusive [inhibitor, single point]
COc1ccc(-n2nc3c(N)n[nH]c3cc2=O)cc1 | – | inconclusive [inhibitor, single point]
CCOc1cc(CNCc2ccccn2)ccc1OCC(=O)NC(C)(C)C | – | inconclusive [inhibitor, single point]
Cc1cc(C)cc(NC(=S)/C(=C(\[O-])c2ccc(Cl)cc2Cl)[n+]2ccccc2)c1 | – | inconclusive [inhibitor, single point]
Cc1oc(/C=N/NS(=O)(=O)c2ccccc2)cc1Br | – | inconclusive [inhibitor, single point]
CCCCN1C(=O)N(C)C2C1N(C)C(=O)N2CCCC (stereo not drawn) | inactive: -0.856% | –
O=C(NCc1ccco1)C(=O)c1cn(CC(=O)N2CCCCC2)c2ccccc12 | – | inconclusive [inhibitor, single point]

SMILES | activity, negative = inhibition | Potency
CCOC(=O)c1c(C)c(C(=O)NC(C)COC)c(C)n1CC (stereo not drawn) | inactive: 4.18% | –
Cc1cccc(C)c1NC(=O)C1(C)c2cccc[n+]2CC(=O)N1Cc1cccs1 (stereo not drawn) | inactive: 15.2% | –
Cc1ccc(C(N)=Nc2ccccc2)cc1 | – | inactive
O=C(NC1CCSC1=O)c1ccccc1 (stereo not drawn) | inactive: 16.2% | –
CC(C)Cc1nc(Nc2ccc(S(=O)(=O)N3CCCC3)cc2)c2nnn(Cc3ccccc3)c2n1 | – | inconclusive [inhibitor, single point]
CCOC(=O)N1CCN(C(=O)C2CC(=O)N(Cc3ccc(OC)cc3)C2)CC1 (stereo not drawn) | – | inconclusive [inhibitor, single point]
Cc1cccc(CNc2ncnc3[nH]ncc23)c1 | inactive: -0.815% [at 13.5 µM] | –
Cc1cc2nc(-c3ccc(NC(=O)C(C)C)cc3)oc2cc1C | – | inconclusive [inhibitor, partial curve]
O=C(CN(Cc1ccccc1)C(=O)c1csnn1)NCc1ccccc1 | inactive: -5.84% | –
Nc1ccc(-n2nncc2-c2ccc(Cl)cc2)cc1 | – | inconclusive [inhibitor, single point]
CCc1cccc2c(C(=O)COC(=O)c3nn(C)c(=O)c4ccccc34)c[nH]c12 | – | inconclusive [inhibitor, full curve]
COC(=O)Cn1c(=N)n(CCN2CCCCC2)c2ccccc21 | inactive: 5.19% | –
Cc1c(NC(=O)CCCN2C(=O)c3cccc4cccc(c34)C2=O)c(=O)n(-c2ccccc2)n1C | – | inconclusive [inhibitor, partial curve]
CCn1c(COc2cccc(C)c2)nnc1SCC(=O)N1CCCC1 | inactive: 9.7% | –
Cc1cccc(N(C)S(=O)(=O)c2ccc3[nH]c(=O)c(=O)[nH]c3c2)c1 | – | inconclusive [inhibitor, single point]
O=C(CN1CCN(c2ccccc2)CC1)N1CCN(c2ccccc2)CC1 | – | inconclusive [inhibitor, single point]
COc1ccc(NC2=Nc3ccccc3N3C2=Nc2c(c(C)nn2-c2ccc(C)cc2)C3c2cccnc2)cc1 (stereo not drawn) | – | inconclusive [inhibitor, single point]
Cc1cc(C)c(NC(=S)NC(=O)c2ccc(-c3ccccc3)cc2)c(C)c1 | – | active: 10 µM
O=C(c1cccs1)N1N=C(c2ccccc2)CC1c1ccc(O)cc1 (stereo not drawn) | – | inconclusive [inhibitor, single point]
CCOC(=O)c1cccc(NC(=O)CSc2nnc(COc3ccccc3C)o2)c1 | – | inconclusive [inhibitor, single point]
CC(=O)Nc1ccc(S(=O)(=O)n2cnc3ccccc32)cc1 | inactive: 0.469% | –
CCn1c(N2CCN(C(=S)Nc3ccc(OC)cc3)CC2)nc2ccccc21 | inactive: -2.95% | –
COCCn1nnnc1C(c1cc2cc(OC)c(OC)cc2[nH]c1=O)N1CCN(c2ccc(O)cc2)CC1 (stereo not drawn) | – | inconclusive [inhibitor, full curve]
COC(=O)[C@H](Cc1ccccc1)NC(=O)[C@@H](C)CO | – | inconclusive [inhibitor, single point]
COc1cccc(NC(=O)CSc2nnc(-c3ccoc3C)n2-c2ccccc2)c1 | – | inconclusive [inhibitor, single point]

SMILES | activity, negative = inhibition | Potency
O=c1c2nnn(-c3ccccc3)c2ncn1C/C=C/c1ccccc1 | – | inconclusive [inhibitor, single point]
Cc1c(-c2ccccn2)c(=O)[nH]n1-c1ccc(F)cc1 | inactive: 5.28% | –
CCn1c(SCC(=O)N2CCN(c3ccc(Cl)cc3)CC2)nc2ccccc2c1=O | inactive: -0.467% | –
COc1ccc(C(=O)NCC(c2ccc(F)cc2)N2CCOCC2)cc1S(=O)(=O)N1CCCC1 (stereo not drawn) | – | inconclusive [inhibitor, partial curve]
COc1ccc(-c2nc3c4ccccc4ccn3c2CN2CCCCC2)cc1 | – | inconclusive [inhibitor, single point]
CSc1ccc(NC(=O)N2CC=C(n3c(=O)[nH]c4ccccc43)CC2)cc1 | inactive: -20.3% | –
Cc1ccn2c(-c3n[nH]c(=S)n3Cc3ccccc3)c(C)nc2c1 | – | inconclusive [inhibitor, single point]
CCOC(=O)c1ccc(-n2c(CN(CC)CC)nc3ccc([N+](=O)[O-])cc3c2=O)cc1 | – | active: 28.2 µM
COC(=O)c1ccc(C23CC4(C2)[C@H](CN(Cc2cccnc2)[C@@H]4c2ccccc2)C3c2ccc(C(F)(F)F)cc2)cc1 (stereo partly drawn) | inactive: 13.1% | –
Oc1ccc2ccccc2c1/C=N/Nc1nnc(-c2ncc[nH]2)c2ccccc12 | inactive: 2.46% | –
CCOC(=O)c1c(C)nc2sc3c(=O)n(-c4ccc(C(C)=O)cc4)nnc3c2c1-c1ccc(OC)cc1 | – | inconclusive [inhibitor, single point]
CN(C)c1nc(-c2ccc3c(c2)OCO3)nc2ccccc12 | inactive: -5.42% | –
COc1ccc(N2CCN(c3n[nH]c(N)n3)CC2)cc1 | inactive: 24.8% | –
CCOC(=O)c1c(C)n(OCc2ccccc2)c2ccc3nonc3c12 | – | inconclusive [inhibitor, partial curve]
O=C(CSc1nc2ccccc2c(=O)[nH]1)Nc1ccc(S(=O)(=O)N2CCCC2)cc1 | – | active: 2.24 µM
S=C(Nc1ccc(Nc2ccccc2)cc1)N1CCN(c2ncccn2)CC1 | – | active: 12.6 µM
Nc1nc(-c2ccccc2)c(-c2ccc([N+](=O)[O-])cc2)s1 | – | inconclusive [inhibitor, single point]
COc1ccc(Cl)cc1NC(=O)CN(C)C(C)C(=O)NCC1CCCCC1 (stereo not drawn) | – | inconclusive [inhibitor, single point]
CCC(=O)Nc1ccccc1C(=O)C(=O)Nc1ccccc1 | – | inconclusive [inhibitor, single point]
O=C(COC(=O)c1oc2ccccc2c1CSc1ccc(Cl)cc1)NC1CCCC1 | inactive: -4.21% | –
COC(=O)c1cc(=O)n2c(sc3ccccc32)c1C#N | – | inconclusive [inhibitor, partial curve]
CC(C)CCOc1ccc(/C=C2\CCn3c2nc2cc(C(=O)O)ccc2c3=O)cc1 | – | inconclusive [inhibitor, single point]
COC(=O)C(C)Sc1nc2c(c(=O)[nH]c(=O)n2C)n1CCC(C)C (stereo not drawn) | – | inconclusive [inhibitor, partial curve]
